Experimental data: US8828401B2, “Cytotoxic peptides and antibody drug conjugates thereof” (Pfizer Inc., priority 2011, dated 2014)

Test system: MDA-MB-468 breast xenografts
Assay: MDA-MB-468 breast xenografts with anti-Notch ADCs
Type: in vivo, female SCID Hairless Outbred (SHO) mice
Protocol: Humanized anti-Notch antibodies, hu28 and hu75, and rat-human chimeric anti-Notch antibodies, ch28 and ch75, were conjugated to various linker-payload combinations and tested in 37622A1 non-small cell lung cancer (NSCLC), HCC2429 lung cancer, MDA-MB-468 breast cancer and N87 gastric cancer xenograft models. For each model described below the first dose was given on Day 0. The tumors were measured at least once a week and their volume was calculated with the formula: tumor volume (mm^3)=0.5×(tumor width^2)(tumor length). The mean tumor volumes (±S.E.M.) for each treatment group were calculated having a maximum of 10 animals and a minimum of 6 animals to be included.
Similar in vivo experiments were performed with the MDA-MB-468 breast cancer cell line as described above. […] To generate xenografts, female SCID Hairless Outbred (SHO) mice were orthotopically implanted with 10×10^6 MDA-MB-468 cells containing 50% Matrigel (BD Biosciences) in the mammary fat pad. When the tumors reached a volume of 250 to 450 mm^3, the tumors were staged to ensure uniformity of the tumor mass among various treatment groups. The MDA-MB-468 breast model was dosed intraveneously Q4dx4 with PBS vehicle, humanized anti-Notch ADCs and control huNeg-8.8 ADCs at the doses provided in Tables 14 and 15.

B1: hu28-vc0101: humanized anti-Notch antibody hu28 conjugated to mcValCitPABC-#54 (conjugate)
heavy: EVQLVESGGGLVQPGGSLRLSCAASGFTFRDYGMTWVRQAPGKGLEWVAYISSGSNYIYYAEAVKGRFTISRDNAKNSLYLQMNSLRAEDTAVYYCARRGPFVLDAWGQGTLVTVSS[human IgG1 constant region left out]
light: DIQMTQSPSSLSASVGDRVTITCKASQSINRYLHWYQQKPGKAPKLLIYNANGLQTGVPSRFSGSGSGTDFTLTISSLQPEDFATYYCLQHNTWPDTFGGGTKVEIKRTVAAPSVFIFPPSDEQLKSGTASVVCLLNNFYPREAKVQWKVDNALQSGNSQESVTEQDSKDSTYSLSSTLTLSKADYEKHKVYACEVTHQGLSSPVTKSFNRGEC
tumor volume (mm^3 ± SEM) (Dose 0.3 mg/kg Q4dx4 iv, DAY 0): 336 ± 19 mm^3 | tumor volume (mm^3 ± SEM) (Dose 0.3 mg/kg Q4dx4 iv, DAY 4): 403 ± 28 mm^3 | tumor volume (mm^3 ± SEM) (Dose 0.3 mg/kg Q4dx4 iv, DAY 7): 395 ± 38 mm^3 | tumor volume (mm^3 ± SEM) (Dose 0.3 mg/kg Q4dx4 iv, DAY 11): 412 ± 42 mm^3 | tumor volume (mm^3 ± SEM) (Dose 0.3 mg/kg Q4dx4 iv, DAY 14): 488 ± 45 mm^3 | tumor volume (mm^3 ± SEM) (Dose 0.3 mg/kg Q4dx4 iv, DAY 18): 497 ± 55 mm^3 | tumor volume (mm^3 ± SEM) (Dose 0.3 mg/kg Q4dx4 iv, DAY 21): 509 ± 60 mm^3 | tumor volume (mm^3 ± SEM) (Dose 0.3 mg/kg Q4dx4 iv, DAY 26): 590 ± 66 mm^3 | tumor volume (mm^3 ± SEM) (Dose 1 mg/kg Q4dx4 iv, DAY 0): 348 ± 22 mm^3 | tumor volume (mm^3 ± SEM) (Dose 1 mg/kg Q4dx4 iv, DAY 4): 439 ± 21 mm^3 | tumor volume (mm^3 ± SEM) (Dose 1 mg/kg Q4dx4 iv, DAY 7): 415 ± 25 mm^3 | tumor volume (mm^3 ± SEM) (Dose 1 mg/kg Q4dx4 iv, DAY 11): 372 ± 34 mm^3 | tumor volume (mm^3 ± SEM) (Dose 1 mg/kg Q4dx4 iv, DAY 14): 314 ± 27 mm^3 | tumor volume (mm^3 ± SEM) (Dose 1 mg/kg Q4dx4 iv, DAY 18): 261 ± 33 mm^3 | tumor volume (mm^3 ± SEM) (Dose 1 mg/kg Q4dx4 iv, DAY 21): 219 ± 41 mm^3 | tumor volume (mm^3 ± SEM) (Dose 1 mg/kg Q4dx4 iv, DAY 26): 253 ± 61 mm^3 | tumor volume (mm^3 ± SEM) (Dose 1 mg/kg Q4dx4 iv, DAY 29): 238 ± 64 mm^3 | tumor volume (mm^3 ± SEM) (Dose 1 mg/kg Q4dx4 iv, DAY 32): 266 ± 67 mm^3 | tumor volume (mm^3 ± SEM) (Dose 1 mg/kg Q4dx4 iv, DAY 35): 271 ± 73 mm^3 | tumor volume (mm^3 ± SEM) (Dose 1 mg/kg Q4dx4 iv, DAY 39): 310 ± 88 mm^3 | tumor volume (mm^3 ± SEM) (Dose 1 mg/kg Q4dx4 iv, DAY 42): 349 ± 95 mm^3 | tumor volume (mm^3 ± SEM) (Dose 1 mg/kg Q4dx4 iv, DAY 47): 394 ± 123 mm^3 | tumor volume (mm^3 ± SEM) (Dose 1 mg/kg Q4dx4 iv, DAY 50): 377 ± 118 mm^3 | tumor volume (mm^3 ± SEM) (Dose 1 mg/kg Q4dx4 iv, DAY 53): 414 ± 127 mm^3 | tumor volume (mm^3 ± SEM) (Dose 1 mg/kg Q4dx4 iv, DAY 56): 470 ± 128 mm^3 | tumor volume (mm^3 ± SEM) (Dose 1 mg/kg Q4dx4 iv, DAY 60): 532 ± 140 mm^3 | tumor volume (mm^3 ± SEM) (Dose 1 mg/kg Q4dx4 iv, DAY 63): 509 ± 117 mm^3 | tumor volume (mm^3 ± SEM) (Dose 1 mg/kg Q4dx4 iv, DAY 67): 611 ± 148 mm^3 | tumor volume (mm^3 ± SEM) (Dose 3 mg/kg Q4dx4 iv, DAY 0): 347 ± 15 mm^3 | tumor volume (mm^3 ± SEM) (Dose 3 mg/kg Q4dx4 iv, DAY 4): 359 ± 24 mm^3 | tumor volume (mm^3 ± SEM) (Dose 3 mg/kg Q4dx4 iv, DAY 7): 326 ± 27 mm^3 | tumor volume (mm^3 ± SEM) (Dose 3 mg/kg Q4dx4 iv, DAY 11): 227 ± 27 mm^3 | tumor volume (mm^3 ± SEM) (Dose 3 mg/kg Q4dx4 iv, DAY 14): 147 ± 20 mm^3 | tumor volume (mm^3 ± SEM) (Dose 3 mg/kg Q4dx4 iv, DAY 18): 77 ± 10 mm^3 | tumor volume (mm^3 ± SEM) (Dose 3 mg/kg Q4dx4 iv, DAY 21): 16 ± 8 mm^3 | tumor volume (mm^3 ± SEM) (Dose 3 mg/kg Q4dx4 iv, DAY 26): 0 ± 0 mm^3 | tumor volume (mm^3 ± SEM) (Dose 3 mg/kg Q4dx4 iv, DAY 29): 0 ± 0 mm^3 | tumor volume (mm^3 ± SEM) (Dose 3 mg/kg Q4dx4 iv, DAY 32): 0 ± 0 mm^3 | tumor volume (mm^3 ± SEM) (Dose 3 mg/kg Q4dx4 iv, DAY 35): 0 ± 0 mm^3 | tumor volume (mm^3 ± SEM) (Dose 3 mg/kg Q4dx4 iv, DAY 39): 0 ± 0 mm^3 | tumor volume (mm^3 ± SEM) (Dose 3 mg/kg Q4dx4 iv, DAY 42): 0 ± 0 mm^3 | tumor volume (mm^3 ± SEM) (Dose 3 mg/kg Q4dx4 iv, DAY 47): 0 ± 0 mm^3 | tumor volume (mm^3 ± SEM) (Dose 3 mg/kg Q4dx4 iv, DAY 50): 0 ± 0 mm^3 | tumor volume (mm^3 ± SEM) (Dose 3 mg/kg Q4dx4 iv, DAY 53): 0 ± 0 mm^3 | tumor volume (mm^3 ± SEM) (Dose 3 mg/kg Q4dx4 iv, DAY 56): 0 ± 0 mm^3 | tumor volume (mm^3 ± SEM) (Dose 3 mg/kg Q4dx4 iv, DAY 60): 0 ± 0 mm^3
